Experimental findings from paper PMC9605988, “Juxtaposition of Bub1 and Cdc20 on phosphorylated Mad1 during catalytic mitotic checkpoint complex assembly” (Nature Communications, 2022) are described below.

The target in test [1] is T1, Mad1^485–718 (Mad1^485), unphosphorylated (UniProt Q9Y6D9 485-718).
T1 construct: Mad1 residues 485-718; Construct His6-DoubleStrep-TEV-Mad1^485–718; two copies in the tetramer and hexamer with Mad2; also called Mad1 residues 485–718
T1 sequence (looked up): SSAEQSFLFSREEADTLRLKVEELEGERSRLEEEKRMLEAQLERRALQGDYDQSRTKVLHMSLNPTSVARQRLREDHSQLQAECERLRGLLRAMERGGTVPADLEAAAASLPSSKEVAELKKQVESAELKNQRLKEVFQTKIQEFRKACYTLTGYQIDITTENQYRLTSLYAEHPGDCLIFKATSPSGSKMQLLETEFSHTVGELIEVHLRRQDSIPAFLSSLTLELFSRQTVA
As to the kind of experiment: SEC + SEC-MALS; Mad1:C-Mad2 tetramer re-purified by SEC after adding excess Mad2; hexamer formed with an excess of Mad2LL; homogeneity confirmed by SEC-MALS. As to conditions: both partners purified. In general terms: In gel filtration, larger molecules generally elute earlier.

Test [2] concerns the target T2, Mad1^485–718 phosphorylated by Mps1 (pMad1^485) (UniProt Q9Y6D9 485-718, phosphothreonine at 716 (predominant); lower abundant phosphorylation at Thr500, Ser538, Thr540, Thr550 and Ser551).
T2 construct: Mad1 residues 485-718; Predominantly one phosphate per monomer by intact mass; also called phosphorylated Mad1^485; phosphorylated Mad1^485–718
T2 sequence (looked up): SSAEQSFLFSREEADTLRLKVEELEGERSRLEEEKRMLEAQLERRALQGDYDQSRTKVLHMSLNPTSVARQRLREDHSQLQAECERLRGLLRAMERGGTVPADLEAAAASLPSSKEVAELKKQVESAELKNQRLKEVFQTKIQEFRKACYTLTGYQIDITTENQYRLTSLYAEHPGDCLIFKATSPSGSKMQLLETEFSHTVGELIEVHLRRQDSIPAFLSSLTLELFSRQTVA
The test is described as above. As to conditions: both partners purified.

B1: Mad2 wild type (C-Mad2 when bound to Mad1) (natural protein)
chain: not shown
notes: Mad2; Two copies of C-Mad2 per Mad1 dimer; The separately purified Mad2 has a TEV site after the tag; also called Mad2 WT; source: baculovirus co-expression with Mad1^[…]; further Mad2 WT purified on its own and added in excess
For B1, the binding result in test [1] and in test [2] was “binds” each time.

B2: Mad2 R133A (dimerisation-deficient), in the tetrameric Mad1^[…]:C-Mad2^R133A complex (natural protein)
chain: not shown
notes: Mad2; source: baculovirus co-expression with Mad1^[…]; further Mad2 R133A purified on its own and added in excess
Consider B2, for which, in test [1], the binding result was “binds”.
